Experimental data as given in PubChem BioAssay (NCATS).
Several values for one entry are separate records, joined by “and”; a condition that tells them apart may be missing. Identical values can stand only once. Inconclusive means that the source gave no clear call. Such entries were picked first, then a sample of the others. Potencies beside an inconclusive call are fits to weak or partial responses and may not hold up. Activity calls are given as the source filed them. The call rests on the fitted dose curve; in most records, active means well fitted inhibition curve with a large enough effect; inconclusive means small, poorly fitted or top-dose-only effect; inactive means flat fitted curve, though single readings scatter.

What follows are molecules tested on HEK293 (assay: Cytotoxic Profiling of Annotated Libraries Using Quantitative High-Throughput Screening (AID 1296008; further: nearly all actives have a fitted effect of over 60% in size)). Settings: Five cell lines viability, CellTiter-Glo ATP luminescence, 48-72 h; max response: hits give low values.
In short: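 Compounds were pin-transferred onto cells and incubated 48 or 72 hr at 37 degree Celsius, 95% humidity. CellTiter-Glo was added, plates sat 10 min at room temperature, then ATP-coupled luminescence was imaged as the viability read-out.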
On the % scale 0 is the no-effect control and ±100 the full control effect; potency means the concentration at half of the fitted maximal effect; tags describe the fitted curve by direction and shape.

| Structure (SMILES) | max response | Potency |
| --- | --- | --- |
| C#C[C@]1(O)C=C[C@@H]2[C@@H]3CCC4=CC(=O)CC[C@@H]4[C@H]3CC[C@@]21CC | inactive: -3.75% | – |
| CC[C@H]1C[C@H]2[C@@H]3CCC4=CC(=O)CC[C@@H]4[C@H]3CC[C@]2(C)[C@H]1O | – | inconclusive: 21.1 µM [inhibitor, partial curve, poor fit] |
| CCCN(CCC)[C@@H]1CCc2ccc3[nH]c(C#N)cc3c2C1 | – | inconclusive: 29.1 µM [inhibitor, single point] |
| CC(C)(C)OC(=O)c1ncn2c1[C@@H]1CCCN1C(=O)c1c(Br)cccc1-2 | – | inconclusive: 33.5 µM [inhibitor, single point] |
| CCN(CC)CCOC(=O)C(C)(c1ccccc1)c1ccccc1 | – | inconclusive: 33.5 µM [inhibitor, single point] |
| CCN1C[C@]2(OC(=O)c3ccccc3NC(C)=O)CC[C@H](OC)[C@@]34[C@H]5CC6[C@@H](OC)C[C@](O)(C(C[C@@H]23)[C@@H]14)[C@@]5(O)[C@@H]6OC | inactive: -8.41% | – |
| C=C(C)[C@@]12O[C@@H]1[C@@]1(C)C(=C[C@H]2O)CC[C@@H](O)[C@@H]1C | – | inconclusive: 29.1 µM [inhibitor, single point] |
| CC1=C2C[C@@H]3[C@@H](CC=C4C[C@@H](O)CC[C@@]43C)[C@@H]2CC[C@]12O[C@H]1C[C@H](C)CN[C@H]1[C@H]2C | – | inconclusive: 6.62 µM [inhibitor, full curve] |
| C[C@]12CC[C@@H](O)C[C@@H]1CC[C@@H]1[C@@H]2CC[C@]2(C)C(=O)[C@@H](Br)C[C@@H]12 | – | inconclusive: 29.1 µM [inhibitor, single point] |
| N#Cc1cn([C@@H]2O[C@H](CO)[C@H](O)[C@@H]2O)c2ncnc(N)c12 | – | active: 0.0461 µM |
| Cc1ccc(Cn2nc(C(=O)N[C@@H]3C(C)(C)[C@@H]4CC[C@@]3(C)C4)cc2-c2ccc(Cl)c(C)c2)cc1 | – | inconclusive: 29.1 µM [inhibitor, single point] |
| CCC1(CC)C(=O)NC(=O)NC1=O | – | inconclusive: 5.96 µM [inhibitor, partial curve, poor fit] |
| CCC1(c2ccccc2)CCC(=O)NC1=O (stereo not drawn) | inactive: -5.95% | – |
| CCOP(=O)(OCC)Oc1ccc2c(C)cc(=O)oc2c1 | – | inconclusive: 25.9 µM [inhibitor, single point] |
| Nc1c(Cl)c(Cl)c(Cl)c(Cl)c1Cl | inactive: -6.61% | – |
| CN1CCc2cc(Cl)c(O)cc2[C@H]2c3ccccc3CC[C@@H]21 | – | inconclusive: 33.5 µM [inhibitor, single point] |
| CN1C(=O)[C@@H](Cc2c[nH]c3ccccc23)N=C(c2ccccc2F)c2ccccc21 | – | inconclusive: 29.1 µM [inhibitor, single point] |
| Nc1ccc(Cl)cc1N | – | inconclusive: 68.6 µM [inhibitor, single point] |
| CCCCC1C(=O)NC(=O)N(C2CCCCC2)C1=O (stereo not drawn) | inactive: 0.515% | – |
| C[C@]12C=CC(=O)C=C1CC[C@@H]1[C@@H]2CC[C@@]2(C)[C@H]1CC[C@]2(C)O | – | inconclusive: 33.5 µM [inhibitor, single point] |
| O=C1CC[C@@]2(O)[C@H]3Cc4ccc(O)c5c4[C@@]2(CCN3CC2CC2)[C@H]1O5 | inactive: -3.14% and inactive: -3.82% | – |
| Cc1sc2c(c1C)C(c1ccc(Cl)cc1)=NC(CC(=O)Nc1ccc(O)cc1)c1nnc(C)n1-2 (stereo not drawn) | – | active: 1.46 µM |
| CN1CCCCC1Cn1cc(C(=O)c2cc([N+](=O)[O-])ccc2I)c2ccccc21 (stereo not drawn) | – | inconclusive: 29.1 µM [inhibitor, single point] |
| CC[C@@]1(O)C(=O)OCc2c1cc1n(c2=O)Cc2cc3c(OC)cccc3nc2-1 | – | active: 0.0508 µM |
| CCOc1ccc(Oc2ccc(OCc3cc(F)ccc3F)cc2)c(N)c1 | – | inconclusive: 29.1 µM [inhibitor, single point] |
| CC1(C)C(=O)N(c2ccc(C#N)c(C(F)(F)F)c2)C(=S)N1c1ccc(C(N)=O)c(F)c1 | – | inconclusive: 29.1 µM [inhibitor, single point] |
| CC1CCCC(O)CCC/C=C/c2cc(O)cc(O)c2C(=O)O1 (stereo not drawn) | – | inconclusive: 20.2 µM [inhibitor, single point] |
| COC(=O)C12C(=O)C(C)(O)C(=O)C1(C)C(C)=CC1C34CCC(OC3=O)C(C)(CO)C4CCC12C (stereo not drawn) | inactive: 4.01% | – |
